# Results reported in PMC4336329 (PLoS ONE, 2015).
# Screen size: about 310,000 compounds; about 2,200 (0.71%) showed an effect of 50% or more. Effects have a minus sign here. This is one part of the list.
# Biological target: human ether-à-go-go-related gene (hERG) potassium channel (human, UniProt Q12809)
# Test: primary screen, population patch clamp on CHO cells stably expressing hERG
# Sequence of human ether-à-go-go-related gene (hERG) potassium channel (Q12809 whole entry, looked up): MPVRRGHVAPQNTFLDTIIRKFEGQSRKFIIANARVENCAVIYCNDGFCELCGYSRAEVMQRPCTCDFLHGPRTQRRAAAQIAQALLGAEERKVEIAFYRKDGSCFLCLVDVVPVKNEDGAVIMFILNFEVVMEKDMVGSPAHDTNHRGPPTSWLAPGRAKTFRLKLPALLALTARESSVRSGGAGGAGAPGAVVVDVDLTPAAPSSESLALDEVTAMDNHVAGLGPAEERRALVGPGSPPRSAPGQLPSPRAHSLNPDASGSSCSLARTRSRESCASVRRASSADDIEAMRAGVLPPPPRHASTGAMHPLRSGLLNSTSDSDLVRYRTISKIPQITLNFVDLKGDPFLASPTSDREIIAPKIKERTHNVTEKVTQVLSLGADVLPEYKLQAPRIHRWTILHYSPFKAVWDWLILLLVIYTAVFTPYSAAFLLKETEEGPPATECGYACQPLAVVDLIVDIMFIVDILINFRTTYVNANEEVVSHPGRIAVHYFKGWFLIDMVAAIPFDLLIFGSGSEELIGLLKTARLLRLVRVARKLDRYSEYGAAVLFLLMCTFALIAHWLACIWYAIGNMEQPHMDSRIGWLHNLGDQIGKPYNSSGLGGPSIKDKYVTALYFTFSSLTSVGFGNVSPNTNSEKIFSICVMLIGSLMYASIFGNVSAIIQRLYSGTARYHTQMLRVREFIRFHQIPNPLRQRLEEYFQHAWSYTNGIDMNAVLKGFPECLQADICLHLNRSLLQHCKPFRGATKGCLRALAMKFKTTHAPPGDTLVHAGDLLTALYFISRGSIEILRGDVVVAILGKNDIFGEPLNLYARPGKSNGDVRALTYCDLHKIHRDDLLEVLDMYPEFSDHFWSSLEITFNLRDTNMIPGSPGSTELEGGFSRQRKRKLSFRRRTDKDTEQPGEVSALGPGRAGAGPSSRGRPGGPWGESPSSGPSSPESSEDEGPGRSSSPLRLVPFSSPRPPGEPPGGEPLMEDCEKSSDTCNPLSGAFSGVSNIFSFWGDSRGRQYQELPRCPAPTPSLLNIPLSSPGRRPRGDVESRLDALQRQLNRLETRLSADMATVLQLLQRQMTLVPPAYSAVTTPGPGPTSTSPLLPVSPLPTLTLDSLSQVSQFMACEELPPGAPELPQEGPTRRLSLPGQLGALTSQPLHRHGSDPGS
row,Structure (SMILES),"hERG current change (%, negative = inhibition) at 1uM"
1,CN(C(=O)CSc1nnc(Nc2ccccc2)s1)C1CCS(=O)(=O)C1 (stereo not shown),-5.47%
2,O=C(N/N=C/c1cccnc1)c1ccccc1OCc1ccc(Br)cc1,-7.4%
3,O=C(/C=C/c1ccccc1)NC(NC(=S)Nc1ccc(Cl)cc1Cl)C(Cl)(Cl)Cl (stereo not shown),14.5%
4,COc1cccc(-c2csc(NC(C)=O)n2)c1,-1.37%
5,CC1CN(c2ccccc2)C(=O)CS1 (stereo not shown),5.94%
6,CCOC(=O)c1cccc(NC(=O)CSc2nnc(-c3cccnc3)n2CC)c1,-8.56%
7,Cc1occc1C(=O)N1CCCC(CO)(Cc2ccc(F)cc2F)C1 (stereo not shown),-0.708%
8,CN=C1SC(CC(=O)NCCc2ccc(OC)c(OC)c2)C(=O)N1C (stereo not shown),9.06%
9,ONc1cccnc1-n1nc(C(F)(F)F)cc1C(F)(F)F,11.4%
10,CCN1CCN(C(=O)CN2C(=O)COc3ccc(C)cc32)CC1,10.6%
11,O=C(O)/C=C/C(=O)NNC(=O)c1ccc(Cl)cc1Cl,14.1%
12,COc1cccc(CN2CC(C(=O)N(C)C3CCOCC3)CCC2=O)c1 (stereo not shown),15.7%
13,C#Cc1ccc([C@@H]2C=C(C(=O)NCc3ccccc3)O[C@H](OCC)[C@H]2CCCO)cc1,6.52%
14,Cc1ccc(CC(=O)NCC(O)c2ccccc2)cc1 (stereo not shown),11%
15,Cc1nnc(NC(=O)c2ccccc2C(=O)O)s1,11.5%
16,Cc1cc(Br)ccc1NC(=O)CCS(=O)(=O)c1cccc2nonc12,17.7%
17,O=C(N/N=C/c1ccc([N+](=O)[O-])o1)c1sc2ccccc2c1Cl,-1.26%
18,Cc1nnc(SCC(=O)Nc2ccc3c(c2)OCO3)[nH]c1=O,17.4%
19,O=C1CCCC(c2ccccc2)N1 (stereo not shown),-3.28%
20,Cc1c(C(=O)N2CCOCC2)cc(C(C)(C)C)n1-c1ccccc1,6.84%

row,Structure (SMILES),"hERG current change (%, negative = inhibition) at 1uM"
1,CC(=O)Nc1ccc(/C=C(\C#N)C(=O)NCc2ccccc2)cc1,14.3%
2,CN(C)CC(CCCCC(CN(C)C)C(=O)c1ccccc1)C(=O)c1ccccc1 (stereo not shown),14.5%
3,CCc1ccccc1NC(=O)Cn1nnc(-c2cccs2)n1,5.81%
4,O=C(O)C1CSC(c2ccccc2)N1C(=O)c1ccco1 (stereo not shown),10%
5,Cc1ccc(CN2CCN(/N=C/c3ccc(C(=O)O)cc3)CC2)cc1,19.3%
6,CCCc1cc(=O)n2nc(N3CCC(C(=O)N4CCN(c5ccc(OC)cc5)CC4)CC3)sc2n1,1.95%
7,C/C(CC(=O)NCc1ccco1)=N\NC(=O)CC#N,7.18%
8,CS(=O)(=O)N(CC(=O)NCCSc1ccccn1)c1ccc(F)cc1,23.1%
9,Cc1ccc(S(=O)(=O)NC(C)(C)C)cc1C(=O)OC(C)C(=O)NC1CC1 (stereo not shown),4.93%
10,O=C(NCc1ccccc1)c1ccc(CS(=O)(=O)c2ccc(Br)cc2)o1,15%
11,O=S(=O)(NCc1cn2ccccc2n1)c1ccccc1F,4.36%
12,O=C(CCc1ccc(S(=O)(=O)NC2CCCCC2)cc1)NCc1cccnc1,13.9%
13,O=C(O)CCCNC(=O)/C(=C\C=C\c1ccccc1)NC(=O)c1ccccc1Cl,-2.33%
14,COC(=O)N(NC(=O)C(O)(c1ccccc1)c1ccccc1)c1ccccc1,15.5%
15,CN(C)C(=O)CSc1nnc(-c2ccc(F)cc2)c2ccccc12,9.69%
16,COc1ccc(OCCn2cc(C=O)c3ccccc32)cc1,10.9%
17,COc1ccc(NC(=O)c2cc(C3CC3)on2)c(OC)c1,-6.04%
18,CCNS(=O)(=O)c1cc(-c2nnc(OC)c3ccccc23)ccc1C,11.1%
19,Cn1c(CN2CCOCC2)nnc1SCC(=O)NCCc1ccccc1,6.24%
20,CCn1c(-c2cc(-c3ccc(C)c(C)c3)nc3ccccc23)n[nH]c1=S,16.2%

row,Structure (SMILES),"hERG current change (%, negative = inhibition) at 1uM"
1,CCCc1cc(C(=O)NCc2cccnc2)no1,13.6%
2,O=C(COC(=O)Cc1cccc(C(F)(F)F)c1)Nc1cccc2ccccc12,11.6%
3,CC1CC(C)CN(C(=O)CCc2nnc3ccc(N4CCCCC4)nn23)C1 (stereo not shown),4.1%
4,CCOc1ccc(NC(=S)c2ccc3ccccc3n2)cc1,5.21%
5,CC(C)c1onc(C(=O)N2CCN(c3ccccc3)CC2)c1[N+](=O)[O-],12.9%
6,CC(=O)C1=C(C)NC(SCSc2ccccc2)=C(C#N)C1c1cccnc1 (stereo not shown),5.28%
7,CCC/C(O)=C1\C(=O)CC(C)(C)CC1=Nc1ccccc1O,4.5%
8,O=C(CCC1CCCCC1)NCCN1C2=NC[C@H](Cc3ccccc3)N2C[C@H]1Cc1ccc(O)cc1,11.4%
9,CCCC1CCc2[nH]nc(C(=O)NN)c2C1 (stereo not shown),13.6%
10,Cc1nc(-c2ccc(Cl)cc2)sc1C(=O)O,13%
11,COc1ccc2c(c1)[nH]c1c(C)nccc12.Cl,-0.728%
12,CCOc1ccc(CN2CCN(Cc3nc(C(C)C)cs3)CC2CCO)cc1 (stereo not shown),-85.5%
13,Cn1cc(CNC(=O)c2ccc(OC3CCN(Cc4ccccn4)CC3)cc2)cn1,12.3%
14,COc1ccc(S(=O)(=O)N2CCNC(=O)CC2)cc1,11.2%
15,CC(=O)c1ccc(NC(=S)NCCc2cccc(Cl)c2)cc1,-5.56%
16,Cc1n[nH]c(=S)n1-c1cccc(Cl)c1,13.9%
17,O=C(C[N+]12CCC(CC1)C(C(O)(c1ccccc1)c1ccccc1)C2)c1ccc(Br)cc1.[Br-] (stereo not shown),5.51%
18,CCCCN(C(=O)CCC(=O)Nc1cc(C)on1)C(C(=O)NC1CCCC1)c1cccc(OC)c1 (stereo not shown),13.7%
